# From article PMC6919601, “Identification of Plasmodium dipeptidyl aminopeptidase allosteric inhibitors by high throughput screening” (PLoS ONE, 2019)
# Hit rate of the full screen: of about 110,000 compounds, about 230 (0.21%) showed an effect of 50% or more. This is one part of the list.
# Biological target: DPAP1 (Plasmodium falciparum, UniProt Q8IIJ9)
# Assay: primary screen, percent inhibition; read by cleavage of a fluorogenic dipeptide substrate; higher = more effect of the substance
# Design: species or system P. falciparum D10 trophozoite lysates; single well
# 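Also: 30 min substrate incubation versus DMSO and 10 µM JCP410 controls.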
# DPAP1, sequence (Q8IIJ9 whole entry, looked up): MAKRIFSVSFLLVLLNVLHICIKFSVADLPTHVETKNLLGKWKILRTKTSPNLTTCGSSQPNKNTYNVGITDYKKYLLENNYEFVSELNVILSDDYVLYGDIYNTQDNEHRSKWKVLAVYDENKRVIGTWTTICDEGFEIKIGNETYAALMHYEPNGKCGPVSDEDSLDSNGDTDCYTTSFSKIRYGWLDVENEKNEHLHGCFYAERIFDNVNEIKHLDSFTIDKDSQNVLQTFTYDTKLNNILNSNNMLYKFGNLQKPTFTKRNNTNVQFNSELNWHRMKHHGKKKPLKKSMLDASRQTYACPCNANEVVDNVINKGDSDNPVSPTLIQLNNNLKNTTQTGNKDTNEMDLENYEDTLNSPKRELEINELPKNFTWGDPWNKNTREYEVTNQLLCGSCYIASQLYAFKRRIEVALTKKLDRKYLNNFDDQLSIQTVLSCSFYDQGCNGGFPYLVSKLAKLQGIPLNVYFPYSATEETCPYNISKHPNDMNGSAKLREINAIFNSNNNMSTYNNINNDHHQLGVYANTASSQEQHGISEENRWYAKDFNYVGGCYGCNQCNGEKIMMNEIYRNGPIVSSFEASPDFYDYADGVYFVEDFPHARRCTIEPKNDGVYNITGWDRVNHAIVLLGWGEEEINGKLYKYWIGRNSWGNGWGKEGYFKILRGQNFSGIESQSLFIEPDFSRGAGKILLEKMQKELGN
row,Structure (SMILES),% Inhibition @ 10 uM [%]
1,Cn1cccc1CNCCCN1CCOCC1,0.032
2,COc1ccc(CCNC(=O)C(=O)NCC(c2cccnc2)N2CCOCC2)cc1OC (stereo not shown),0.00665
3,COc1ccc(OC)c(NC(=O)COc2ccc(Br)c(C)c2)c1,5.42
4,CC1CN(Cc2nc3c(c(=O)n(C)c(=O)n3C)n2CCc2ccccc2)CC(C)O1 (stereo not shown),-7.05
5,CC(C)NC(=O)c1ccc(CS(=O)c2cccc(Cl)c2)o1 (stereo not shown),-0.999
6,Cc1ccccc1OCCSc1nc2ccccc2n1CCC(=O)O,4.78
7,CCOC(=O)N1CCN(Cc2nc3c(c(=O)n(C)c(=O)n3C)n2Cc2cccc3ccccc23)CC1,4.51
8,Cc1sc2s[n+](CCCS(=O)(=O)O)c(C)c2c1C,-1.33
9,O=C(COc1ccc(Cl)cc1Cl)Nc1ccc(CN2CCOCC2)cc1,-5.34
10,COc1ccc(C(=O)N2CCC(N3CCCCCC3)CC2)cc1,1.91
11,C=CCc1c(C)nc(SC)nc1Nc1ccc([N+](=O)[O-])cc1,-4.23
12,Nc1nc(CSc2nnnn2Cc2ccccc2)nc(N2CCOCC2)n1,0.503
13,CCn1c(NC(=O)Nc2ccc(Cl)c(Cl)c2)nc2ccccc21,0.36
14,Cc1cccc(OCc2nc(C#N)c(N3CCOCC3)o2)c1,-2.75
15,COc1ccc(C2CC3=Nc4ccccc4NC(c4cccs4)C3=C(O)C2)cc1 (stereo not shown),2.45
16,Cc1ccccc1Cn1c2ccccc2c2cnn(CC(=O)NCc3ccc4c(c3)OCO4)c(=O)c21,1.8
17,CCc1ccc(NC2=C(Cl)C(=O)N(Cc3ccccc3)C2=O)cc1,-0.68
18,O=C(Cn1cccc1C(=O)c1ccccc1)NCCCc1ccccc1,-4.04
19,NC(=O)c1cc(S(=O)(=O)NCCc2ccccc2)cs1,-3.15
20,Cc1onc(-c2ccccc2)c1C(=O)NC12CC3CC(CC(C3)C1)C2,1.7
21,Cn1cc(/C=C(\NC(=O)c2ccco2)C(=O)NCCO)c2ccccc21,1.64
22,COCCNCc1c(C(=O)O)n(Cc2ccc(F)cc2Cl)c2cc(OC)ccc12,7.68
23,N#CC1=C(N)Oc2cc(O)ccc2C1c1ccncc1 (stereo not shown),0.726
24,O=C(NC(c1ccccc1)c1ccccc1)C1CCN(S(=O)(=O)c2cccc3nonc23)CC1,-0.668
25,COc1ccc(-c2csc3ncn(CC(=O)Nc4ccc(C)cc4C)c(=O)c23)cc1OC,-0.661

row,Structure (SMILES),% Inhibition @ 10 uM [%]
1,Cc1ccc(NCc2c3ccccc3c(CNc3ccc(C)cc3Br)c3ccccc23)c(Br)c1,0.98
2,COc1cc(-c2[nH]nc3c2C(c2cccs2)C(C#N)=C(N)O3)cc(OC)c1OC (stereo not shown),7.1
3,Cc1ccc(S(=O)(=O)NCC(Sc2nnc3nc(C)cc(C)n23)c2ccccc2)cc1 (stereo not shown),-2.05
4,COc1ccc(N(CC(=O)N2CCOCC2)S(C)(=O)=O)cc1OC,-2.22
5,O=C(O)CC(CNC(=O)c1cc2cc(Br)ccc2oc1=O)c1ccccc1 (stereo not shown),-4.04
6,COCCn1c(C)cc(C(=O)C(=O)Nc2nnc(Cc3ccc(OC)c(OC)c3)s2)c1C,-8.56
7,CCn1cc(CNC(=O)c2c(-c3c(Cl)cccc3Cl)noc2C)c(C)n1,2.73
8,COc1ccc(CN2CC(C(=O)NCCCN3CCCC(C)C3)CC2=O)cc1 (stereo not shown),-0.0542
9,Cc1ccc(S(=O)(=O)NC(=O)Nc2nc3ccccc3s2)cc1,-6.41
10,COc1ccccc1-c1csc(C(=O)N[C@@H](CC(C)C)C(=O)NCC#N)c1,-1.41
11,COc1cccc2c1OC1(CCCCC1)N1N=C(c3ccc(C)o3)CC21 (stereo not shown),1.88
12,CC(C)c1ccc(NC(=O)c2cccc(Br)c2)cc1,-0.127
13,Cc1cc(C)c(C#N)c(SCC(=O)NC(C)C23CC4CC(CC(C4)C2)C3)n1 (stereo not shown),-4.43
14,Cc1cc2nc(O)cc(-c3ccccc3)n2n1,-3.1
15,CCOc1ccc(NC(=O)c2cncc(Br)c2)cc1,4.44
16,CCCCN(C)CCNC(=O)C1CCN(S(=O)(=O)c2cccc3nsnc23)CC1,-5.22
17,O=C(O)c1ccccc1SC1CC(=O)N(c2ccc(F)cc2)C1=O (stereo not shown),-2.07
18,CC1=NN(c2ccccc2)C(=O)/C1=C1/C(=O)Nc2c1ccc(Cl)c2C,1.15
19,COc1ccc(NCc2cccc(C(F)(F)F)c2)c(OC)c1,-0.0953
20,CC1CC(C(F)F)n2nc(C(=O)O)nc2N1 (stereo not shown),-7.35
21,COC(=O)c1cc(C2CC2)nc2c1c(C)nn2-c1ccccc1,7.86
22,O=C1CC2(O)CCC1(c1ccccc1)CC2,1.41
23,FC(F)(F)c1cccc(N2CCN(Cc3ccco3)CC2)c1,1.48
24,O=C(NC1CCCc2ccccc21)C1CCN(S(=O)(=O)N2CCCCCC2)CC1 (stereo not shown),0.955
25,O=C1CCCC(=O)C1=CNc1ccc(C(=O)NC2CCCCC2)cc1,-6.18

row,Structure (SMILES),% Inhibition @ 10 uM [%]
1,O=C(NCc1cccc(Cl)c1)C1CCN(c2nnc(N3CCCC3=O)s2)CC1,0.623
2,Cc1c(Cl)cccc1N(CC(=O)N1CCCCC1)S(C)(=O)=O,-1.04
3,CCOC(=O)C1=C(CN(C)Cc2ccccc2)NC(=O)NC1c1ccc(C)cc1 (stereo not shown),-5.16
4,Cc1cccc(NC(=O)CN(c2ccc(F)cc2)S(C)(=O)=O)c1,3.24
5,Cc1cccc(CNC(=O)C(C)Nc2nn3c(=O)cc(C)nc3s2)c1 (stereo not shown),1.38
6,O=C(CCN1C(=O)c2ccccc2C1=O)Nc1ccccc1C(=O)O,-1.99
7,CCOc1ccc(C(NC(=O)c2ccc(F)cc2)c2ccc(OC)c(OC)c2)cc1 (stereo not shown),24.9
8,O=C(CSc1nncn2c1cc1occc12)NCc1ccco1,-0.232
9,COc1cccc(N2CCN(Cc3ccoc3)CC2)c1,-1.75
10,C=CC[n+]1ccc(COC(=O)Nc2cccc(C(F)(F)F)c2)cc1,5.9
11,Clc1cccc(N2CCN(C3CCCCCC3)CC2)c1,-0.0908
12,C=CCc1ccccc1OCc1cccc(C(=O)O)c1,-5.24
13,CC1=C(C(=O)Nc2cccnc2)C(c2ccc(C)cc2)n2nc(SCc3ccccc3)nc2N1 (stereo not shown),5.11
14,CSc1ccc(/C=C2\N=C(c3ccco3)OC2=O)cc1,-1.51
15,CCCCCOc1ccc(C#N)c2ccccc12,-2.89
16,COc1cc(-c2cccn2C)c(OC)cc1-c1cccn1C,6.1
17,CN1CCC(N(C)Cc2ccc(C(F)(F)F)cc2)CC1,-2.56
18,CCOC(=O)/C(C#N)=C(\C)CCc1ccccc1,-4.06
19,Cc1cc(C)c2c(-n3cccc3)c(C(=O)N3CC(C)CC(C)C3)sc2n1 (stereo not shown),3.87
20,Cc1oc2ncn(C)c(=O)c2c1C(=O)Nc1nc2ccccc2s1,7.46
21,CC1(C)Cc2c(sc3nc(SCC(=O)O)n(C4CCCCC4)c(=O)c23)CO1,-2.8
22,Cc1ccc2oc(=O)c3cnn(CC(=O)NCCc4ccc(S(N)(=O)=O)cc4)c3c2c1,-1.7
23,O=C(O)C1CC(=O)N(Cc2ccc3c(c2)OCO3)/C(=N/c2ccc(Cl)cc2)S1 (stereo not shown),10.2
24,CN(C)CCN(C)Cc1ccc(Br)s1,6.9
25,Cc1nn(CCC(=O)NCc2cccnc2)c(=O)c2nn(-c3ccccc3)c(C)c12,-7.74

row,Structure (SMILES),% Inhibition @ 10 uM [%]
1,COc1ccc(S(=O)(=O)NC2CC(C)(C)NC(C)(C)C2)cc1C,1.88
2,O=C(c1cc2n(n1)C(C(F)(F)F)CC(c1ccc(F)cc1)N2)N1CCOCC1 (stereo not shown),0.687
3,COc1cc(O)ccc1C=O,0.66
4,CC1=C(C(=O)NCCc2ccc(S(N)(=O)=O)cc2)C2(CCCCC2)OC1=O,3.19
5,COc1ccccc1Cn1c(SCC(N)=O)nc2nccnc2c1=O,-4.37
6,CCOc1cc(C=O)ccc1OCCOc1cccc(C)c1,1.58
7,CC(/C=C1\N=C(c2ccc(F)cc2)OC1=O)=C\c1ccc2c(c1)OCO2,2.92
8,COc1ccc(-c2noc(CNC(=O)COc3ccc(C(C)(C)C)cc3Br)n2)cc1,-2.99
9,CCOc1ccccc1/C=C(\C#N)c1nc(-c2ccccc2)cs1,1.08
10,COC(=O)c1cc(S(=O)(=O)N2CCC(N3CCCCC3)CC2)c[nH]1,5.94
11,CC(C)=CCC/C(C)=C/CN1CCCN(C)CC1,-7.91
12,Cn1c(-c2nonc2NC(=O)CSc2nc3ccccc3o2)nc2ccccc21,-1.84
13,COc1ccc(N2C(=O)c3ccccc3NC2c2cc(OC)c(OC)c(OC)c2)cc1 (stereo not shown),-2.85
14,COCc1cc(C)nc2sc(C(=O)c3ccc(Cl)cc3)c(N)c12,0.674
15,COc1cc2nc3c(O)n(CCN4CCN(Cc5ccccc5)CC4)cnc-3c2cc1OC,-7.27
16,CC1=C(C(=O)Nc2cc(C)ccn2)C(c2cccc(Cl)c2)C2=C(O)CCCC2=N1 (stereo not shown),5.9
17,OCCC1CCCCN1Cc1cccc(Cl)c1 (stereo not shown),-4.58
18,O=C(O)c1ncn(-c2ccccc2)n1,5.43
19,Cc1ccc(-c2ccccc2)c(Oc2ccc(C#N)c(C#N)c2)c1,-3.55
20,CCCOc1ccccc1C1C2=C(O)CCCC2=NC(C)=C1C(=O)OC (stereo not shown),2.45
21,CCOc1cccc(C(=O)Nc2cnn(Cc3ccccc3)c2)c1,-1.32
22,O=C(NCc1ccccc1)C(Cc1ccccc1)N1C(=O)C2C3C=CC(C3)C2C1=O (stereo not shown),2.54
23,CCOc1ccc2[nH]c(C(=O)O)c(CCN)c2c1,4.54
24,CN1C(=O)NC(=O)/C(=C\c2c[nH]nc2-c2ccc(F)cc2)C1=O,-0.834
25,CC(C)C[C@H](NC(=O)c1ccc(CN)cc1)C(=O)N[C@@H](CCc1ccccc1)C(=O)COCc1ccccc1,-3.97
